Source: PMC4336329 (PLoS ONE, 2015)
In all, about 310,000 compounds went through this assay and about 14,000 (4.5%) showed an effect of 50% or more. The effect is printed as a negative number. The list shows a part of the results.

What follows are molecules tested against human ether-à-go-go-related gene (hERG) potassium channel (human, UniProt Q12809) (assay: primary screen, population patch clamp on CHO cells stably expressing hERG).
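Note: peak tail current of the secondary pulse compared with the same well before compound.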

Chain of human ether-à-go-go-related gene (hERG) potassium channel (Q12809 whole entry, looked up): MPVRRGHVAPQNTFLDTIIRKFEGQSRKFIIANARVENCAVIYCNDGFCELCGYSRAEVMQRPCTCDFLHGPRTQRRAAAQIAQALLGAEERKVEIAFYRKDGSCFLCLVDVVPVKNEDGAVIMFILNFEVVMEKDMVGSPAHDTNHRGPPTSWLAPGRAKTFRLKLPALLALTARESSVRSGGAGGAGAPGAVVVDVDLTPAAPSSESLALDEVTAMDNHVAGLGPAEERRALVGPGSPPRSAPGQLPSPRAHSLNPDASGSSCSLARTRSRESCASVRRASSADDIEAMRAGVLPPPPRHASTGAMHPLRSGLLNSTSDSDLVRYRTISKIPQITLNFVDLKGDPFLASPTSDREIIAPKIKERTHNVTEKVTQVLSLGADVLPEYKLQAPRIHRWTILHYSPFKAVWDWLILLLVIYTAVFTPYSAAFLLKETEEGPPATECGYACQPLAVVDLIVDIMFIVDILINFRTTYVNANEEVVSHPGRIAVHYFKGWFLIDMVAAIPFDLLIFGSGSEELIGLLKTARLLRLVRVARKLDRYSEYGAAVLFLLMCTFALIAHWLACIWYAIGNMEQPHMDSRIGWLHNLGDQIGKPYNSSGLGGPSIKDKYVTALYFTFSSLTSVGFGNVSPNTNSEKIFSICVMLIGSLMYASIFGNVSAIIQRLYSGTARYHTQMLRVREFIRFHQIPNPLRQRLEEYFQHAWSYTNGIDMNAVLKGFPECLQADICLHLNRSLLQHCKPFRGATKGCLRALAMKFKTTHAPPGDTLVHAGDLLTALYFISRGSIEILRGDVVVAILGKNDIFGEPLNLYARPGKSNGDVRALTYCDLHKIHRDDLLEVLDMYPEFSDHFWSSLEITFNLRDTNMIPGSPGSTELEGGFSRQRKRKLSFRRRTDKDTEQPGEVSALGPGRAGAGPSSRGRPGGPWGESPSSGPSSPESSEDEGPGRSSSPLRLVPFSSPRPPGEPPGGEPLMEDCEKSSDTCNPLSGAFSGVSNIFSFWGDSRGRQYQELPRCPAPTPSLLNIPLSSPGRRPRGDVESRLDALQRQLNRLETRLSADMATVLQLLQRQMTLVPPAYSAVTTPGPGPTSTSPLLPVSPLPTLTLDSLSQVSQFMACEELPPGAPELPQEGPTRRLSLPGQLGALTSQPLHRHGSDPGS

Structure (SMILES)	hERG current change (%, negative = inhibition) at 10uM
COc1cccc(NC(=O)CSc2nc3c(sc4ccccc43)c(=O)n2CCCN2CCCC2)c1	-69.8%
O=C(NC1CCSc2ccccc21)c1ccc(Cl)c(S(=O)(=O)N2CCOCC2)c1 (stereo not drawn)	7.48%
CC(/C=C/c1ccccc1)=N\NC(=O)Cn1nc(C)cc1C	-18%
O=C(OCC(=O)N1CCC(Cc2ccccc2)CC1)c1cc(Cl)ccc1O	-1.69%
Cc1onc(-c2ccccc2)c1C(=O)N1CCN(C/C=C/c2ccccc2)CC1.Cl	-44%
CN(C)c1cc[n+](CC[n+]2ccc(N(C)C)cc2)cc1.[Br-]	15.6%
CCc1nnc2sc(-c3cc(-c4ccccc4)nc4ccccc34)nn12	2.05%
O=C(Nc1ccc(S(=O)(=O)N2CCCC2)cc1)c1cc(=O)c2ccccc2o1	2.3%
CCOc1cc(N(CC)CC)ccc1/C=C(/C#N)c1nc2ccccc2[nH]1	0.119%
O=S(=O)(NC(=S)NC1CCCCC1)c1ccc(Cl)cc1	14.7%
CCC(=O)c1ccc(N2CCCCCC2)c(F)c1	4.04%
COC(=O)c1ccc2c(=O)n(CC3CCCO3)c(SCC(=O)Nc3ccc(OC)cc3OC)nc2c1 (stereo not drawn)	11.5%
COC(=O)c1ccccc1NC(=O)c1ccc(COc2cccc3ccccc23)o1	0.342%
Cc1ccc(NC(=O)CSc2ccc(-c3ccco3)nn2)cc1	-7.67%
O=C(Nc1cccc2cccnc12)c1cccc(N2C(=O)CCC2=O)c1	13.5%
COc1ccc(CCC(=O)N2CCCc3ccccc32)cc1	6.02%
Cc1cccc(N2CCN(C(=O)COc3ccc4ccc(=O)oc4c3)CC2)c1C	5.66%
Cc1ccc(-n2cnnn2)c(S(=O)(=O)N2CCOCC2)c1	-11.2%
CCOC(=O)c1c(C)n(C)c2ccc(OCCN(C)C)cc12	-5.39%

Structure (SMILES)	hERG current change (%, negative = inhibition) at 10uM
CCn1ccnc1CNC(=O)c1ccc2oc(C(C)C)nc2c1	20.5%
CCOc1ccc(CCNC(=O)C2CCCN(S(=O)(=O)N3CC(C)CC(C)C3)C2)cc1OCC (stereo not drawn)	-5.9%
Cc1ccc(NC(=O)C2CC(=O)N(Cc3ccccc3)C2)nc1 (stereo not drawn)	8.8%
CCOC(=O)c1c(NC(=O)C(NCCN(C)C)c2ccccc2)sc2c1CCCC2 (stereo not drawn)	-73.2%
COc1ccc(CN(C(=O)c2ccco2)C2CCS(=O)(=O)C2)cc1 (stereo not drawn)	-1.27%
COc1cccc(-c2nn(-c3ccccc3)cc2CN(C)Cc2ccon2)c1	9.02%
COC(=O)C1=C(C)Nc2sc(C(N)=O)c(N)c2C1c1ccncc1 (stereo not drawn)	9.03%
O=c1c2ccccc2c2ccccc2c(=O)n1CC1CCCO1 (stereo not drawn)	-14.4%
COc1cccc2cc(C(C)N(CCCN3CCOCC3)C(=S)Nc3ccccc3C)oc12 (stereo not drawn)	-7.78%
Cc1ccc2c(c1)c(CC(=O)Nc1ccc(F)cc1)c(C(=O)O)n2C	1.38%
CCN(CC)CCCNC(=O)c1ccc2c3n(nc2c1)-c1ccc(Cl)cc1CO3	-30.8%
CC(c1ccccc1F)n1cc(C(=O)NCCCc2nc3ccccc3[nH]2)nn1 (stereo not drawn)	24.3%
CCn1nc(C)c(Br)c1Nc1ccc(Br)cc1	58.3%
Cc1c2ccccc2c(C)c2c1ccc1ccccc12	-13%
CSc1nc2c(cnn2-c2ccccc2)c(=O)n1N	0.928%
CCOc1ccc(NC(=O)COc2ccc(-n3cnnn3)cc2)cc1	-7.81%
CC(NCCS(=O)(=O)c1ccc(Cl)cc1)c1cccc(Cl)c1 (stereo not drawn)	-8.89%
O=C(NCc1cccc(Cl)c1)c1cccnc1	-11.9%
O=C1C2CCCN2C(c2ccc(F)cc2)N1c1nccs1 (stereo not drawn)	9.91%

Structure (SMILES)	hERG current change (%, negative = inhibition) at 10uM
CC(=O)C1=C(C)Nc2ncnn2C1c1ccc(Br)cc1 (stereo not drawn)	-12.2%
CCCCCC(=O)N1CC2(CC(c3cccc(NC(=O)[C@@H]4CCC(=O)N4)c3)=NO2)C[C@@H]1C(N)=O (stereo partly drawn)	15.2%
COc1ccc(OCC(O)CNC(=O)c2cccs2)cc1 (stereo not drawn)	9.93%
CCN(CC(=O)Nc1c(F)cccc1F)C(=O)C1=COCCO1	-6.35%
N#CCCN1CCN(S(=O)(=O)c2ccc(S(=O)(=O)NC3CCCCC3)cc2)CC1	12.7%
CCOC(=O)Cn1cc(C(=O)c2ccccc2F)c2ccccc21	-71%
c1ccc(Nc2nc(N3CCCCC3)nc(N3CCCCC3)n2)cc1	-4.68%
CCCOc1ccc(CSc2nc3ccccc3[nH]2)cc1	-13.1%
Cc1cc(=O)oc2cc(NC(=O)C(C)Oc3cccc(Cl)c3)ccc12 (stereo not drawn)	14.8%
C(=C\c1ccccc1)/C=N/Nc1nc2ccccc2s1	27%
Cn1cc(Cl)nc1C(O)c1ccccc1 (stereo not drawn)	7.21%
O=C1Nc2ccccc2N(O)N1c1ccc(S(=O)(=O)N2CCOCC2)cc1	-4.56%
Cc1ccc2c(cnn2C(=O)CCCC(=O)NC(C)c2ccccc2)c1 (stereo not drawn)	-5.97%
CC(CCc1ccccc1)NC(=O)C1CCN(S(=O)(=O)N2CCOCC2)CC1 (stereo not drawn)	1.11%
CN(C)NC(=S)Nc1ccc(Cl)cc1	-4.72%
CC(OC(=O)CCCSc1nc2ccccc2s1)C(=O)NC(N)=O (stereo not drawn)	-4.64%
CCCOP(=O)(OCCC)c1c([N+](=O)[O-])cc(C(F)(F)F)cc1[N+](=O)[O-]	-7.84%
Cc1cc(/C=C2\SC(=Nc3ccccc3)NC2=O)c(C)n1-c1ccc(S(N)(=O)=O)cc1	7.84%
Cc1cc(NS(=O)(=O)c2ccc(NC(=O)C(C(C)C)N3C(=O)c4ccccc4C3=O)cc2)nc(C)n1 (stereo not drawn)	10.6%
